Over roughly 33,000 sequences, “E-score (-0.5 to 0.5)” has its median near -0.012; the highest 2% begin near 0.27. This is one part of the list.
Each sequence was assayed against T1, Vhr1 (UniProt P40522) (assay: PBM E-score (8-mer binding enrichment) (E-score (-0.5 to 0.5)); higher = stronger / more preferred TF binding; most listed sequences are background and not binding sites). Conditions: protein concentration: 200 nM; construct: GST-full length.
T1 sequence: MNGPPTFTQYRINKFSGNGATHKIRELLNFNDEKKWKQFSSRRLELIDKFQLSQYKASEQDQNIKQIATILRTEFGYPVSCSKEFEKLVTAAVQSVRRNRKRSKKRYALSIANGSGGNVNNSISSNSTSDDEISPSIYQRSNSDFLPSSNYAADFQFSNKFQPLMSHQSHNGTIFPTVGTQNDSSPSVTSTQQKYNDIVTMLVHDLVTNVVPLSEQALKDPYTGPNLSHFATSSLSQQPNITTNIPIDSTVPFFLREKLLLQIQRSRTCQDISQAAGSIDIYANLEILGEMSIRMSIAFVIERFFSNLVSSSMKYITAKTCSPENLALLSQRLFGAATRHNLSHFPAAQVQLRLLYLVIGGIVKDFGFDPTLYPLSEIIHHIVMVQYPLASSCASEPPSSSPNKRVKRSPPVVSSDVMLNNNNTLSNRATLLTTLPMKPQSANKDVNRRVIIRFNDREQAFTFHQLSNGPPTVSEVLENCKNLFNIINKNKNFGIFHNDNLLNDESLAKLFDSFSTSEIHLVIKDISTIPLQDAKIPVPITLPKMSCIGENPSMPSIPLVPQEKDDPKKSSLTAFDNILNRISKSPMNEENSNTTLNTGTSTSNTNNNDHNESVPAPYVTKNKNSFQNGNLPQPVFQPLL
Summary of the method: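 Each ungapped eight-base word and its reverse complement, pooled, received an E-score from the Universal PBM Analysis Suite. Underlying scans, normalised with masliner, recorded fluorescent anti-GST bound to GST-tagged yeast transcription factors. These were applied at about 100-200 nM to universal all-10-mer Agilent arrays double-stranded by primer extension.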

Sequence | PBM E-score
CGAGCATC | -0.0984
AGCCGTAC | 0.0737
AGAACGAA | -0.158
AGCCGACT | 0.0574
TCTGGGCA | -0.15
ACAAACAG | 0.0433
GATAAGAA | -0.259
TGAAGACA | -0.142
CGCGCCGA | 0.155
CCCGGCCA | -0.22
AGAAGCAC | -0.242
ATCTAACG | -0.165
GGTGCTCA | 0.0342
CGGACCGC | 0.0237
AATCTAGA | -0.14
ACCTAAGC | -0.0498
CGGATACC | 0.16
AGATCAGA | -0.0703
CGTTCTCC | -0.0491
AGTAGGAC | -0.0372
TGCCACCA | -0.0555
ACGTTAAG | -0.236

Sequence | PBM E-score
ACTGATAG | 0.167
ACTACGCT | -0.0765
TGCATCCA | -0.0453
TCAGGGCA | -0.047
CTACGCCA | -0.0819
CCGAAGTC | 0.0641
GCACACCC | 0.139
GGTAAGCA | -0.0637
ACGGGTTG | -0.0122
ATGGGCGC | -0.0233
TCTGTTAA | -0.127
AAACCCCT | -0.279
ATTAGAAC | 0.0749
ACATGAGA | 0.273
AGCACGCA | -0.235
AACAAACA | 0.0355
AAATTTAG | -0.069
GCCAACGA | -0.111
CCGGAGCG | -0.0813
CAACGGGC | -0.0189
CCTGCGTC | -0.0426
GATGTTCA | -0.103

Sequence | PBM E-score
GACGGTCC | -0.099
ACAAGTTG | -0.0282
GATTGTAA | 0.0334
AAACGGAG | -0.109
CAACTTAG | 0.0775
CTGTTATA | 0.0386
ACGACGAG | 0.0374
AAGCTATT | -0.185
CGGTAGGA | 0.139
GACCCTGC | -0.14
AGGGATAA | 0.101
GCCGCCGA | 0.0775
ATTCACGA | 0.144
ATTTGTTG | 0.0181
ACTAGTCT | 0.0852
AATGGAGA | 0.0175
AGGCAAAG | -0.192
ATCTACAT | 0.114
GGGTACGA | 0.174
CCCACTTC | 0.067
ATATCCAG | 0.207
ATAATCCA | 0.0661

Sequence | PBM E-score
ATAGGGAG | -0.0261
CCGGTCGA | -0.153
AAACATAA | 0.206
TAAACATA | 0.137
GCACCGGC | 0.101
TACAAGTA | 0.0561
CGTGCCGA | -0.00519
ATCCTACG | -0.0602
AGGGCGTA | -0.0697
CAGCTACA | 0.0756
GCCTTGCC | -0.12
GACTAAGC | 0.211
AATCTGAG | -0.122
CTTTAAAA | -0.189
GTGCCCAA | -0.0239
GAGTATAC | -0.0406
CAATACGA | 0.109
ACGGTCTG | 0.0431
ACCATTCG | -0.0262
CGTAAGTC | -0.0346
